# The campaign covered roughly 310,000 compounds. About 14,000 (4.5%) showed an effect of 50% or more. The effect is printed as a negative number. The list shows a part of the results.
# Target: human ether-à-go-go-related gene (hERG) potassium channel (human, UniProt Q12809)
# Assay: primary screen, population patch clamp on CHO cells stably expressing hERG
# 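Further: peak tail current of the secondary pulse compared with the same well before compound.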
# Sequence of human ether-à-go-go-related gene (hERG) potassium channel (Q12809 whole entry, looked up): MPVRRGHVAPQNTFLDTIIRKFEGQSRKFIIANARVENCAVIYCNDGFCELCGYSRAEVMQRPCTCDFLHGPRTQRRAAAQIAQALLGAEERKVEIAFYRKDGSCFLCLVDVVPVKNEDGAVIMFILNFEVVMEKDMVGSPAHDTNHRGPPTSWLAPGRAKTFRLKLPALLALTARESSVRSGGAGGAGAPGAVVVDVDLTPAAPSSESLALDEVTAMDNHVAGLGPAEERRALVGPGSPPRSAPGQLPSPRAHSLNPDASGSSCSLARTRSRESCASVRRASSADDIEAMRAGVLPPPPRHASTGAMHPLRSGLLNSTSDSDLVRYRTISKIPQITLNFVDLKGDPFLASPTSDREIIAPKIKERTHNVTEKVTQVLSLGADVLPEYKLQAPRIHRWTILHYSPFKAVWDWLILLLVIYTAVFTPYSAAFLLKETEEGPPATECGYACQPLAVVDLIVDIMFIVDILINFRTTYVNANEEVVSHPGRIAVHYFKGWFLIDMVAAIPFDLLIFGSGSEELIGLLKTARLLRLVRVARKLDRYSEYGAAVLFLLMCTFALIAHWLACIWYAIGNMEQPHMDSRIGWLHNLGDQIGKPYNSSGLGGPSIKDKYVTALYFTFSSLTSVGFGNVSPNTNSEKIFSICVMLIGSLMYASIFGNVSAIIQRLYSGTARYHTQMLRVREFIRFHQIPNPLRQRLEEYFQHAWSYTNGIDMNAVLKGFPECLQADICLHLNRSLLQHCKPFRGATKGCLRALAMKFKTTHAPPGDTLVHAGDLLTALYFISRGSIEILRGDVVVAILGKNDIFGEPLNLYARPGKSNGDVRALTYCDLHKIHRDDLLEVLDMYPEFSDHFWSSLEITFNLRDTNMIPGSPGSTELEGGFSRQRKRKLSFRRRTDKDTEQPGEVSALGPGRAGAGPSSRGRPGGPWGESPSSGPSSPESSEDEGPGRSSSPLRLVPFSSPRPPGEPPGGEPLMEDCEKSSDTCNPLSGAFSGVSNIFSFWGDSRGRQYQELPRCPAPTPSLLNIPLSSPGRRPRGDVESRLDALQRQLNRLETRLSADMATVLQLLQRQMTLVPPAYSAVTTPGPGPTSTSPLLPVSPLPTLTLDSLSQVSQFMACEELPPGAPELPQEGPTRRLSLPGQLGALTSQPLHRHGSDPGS
row,Structure (SMILES),"hERG current change (%, negative = inhibition) at 10uM"
1,CCOc1ccc(N2C(=O)CC(Sc3nc(C)cc(C)n3)C2=O)cc1 (stereo not shown),-6.96%
2,CC(C)Cc1nc2n[nH]c(N)c2c2c1CCC2,-3.89%
3,N#Cc1ccc(OCC(=O)OCC(=O)Nc2cc(C(F)(F)F)ccc2N2CCOCC2)cc1,-57.7%
4,CC(OC(=O)c1ccc(Cl)nc1)C(=O)NC1CCCC1 (stereo not shown),12.2%
5,N#Cc1c(NC(=O)C2CC(c3c(F)cccc3Cl)=NO2)sc2c1CCC2 (stereo not shown),-17.2%
6,COc1ccc(NC(=O)Nc2cccc(Cl)c2Cl)c(OC)n1,3.16%
7,C#CC[N+](C)(C)CCCCCCCCCCCC.[Br-],-50.7%
8,O=C(O)c1ccc(N2N=C(c3ccccc3)CC2c2ccccc2)cc1 (stereo not shown),28%
9,O=C(N/N=C\c1c(F)c(F)c(F)c(F)c1F)c1ccc(-c2ccccc2)cc1,5.34%
10,COc1ccc(NC(=O)C2CCN(C(=O)[C@@H]3Cc4ccccc4CN3C(=O)OC(C)(C)C)CC2)cc1,2.02%
11,C[C@@]12C(=O)OC(=O)[C@]1(C)C1CCC2O1,14.1%
12,O=C(CN1CCCCCC1)Nc1ccc(S(=O)(=O)N2CCOCC2)cc1,11.9%
13,COc1ccc(CCNC(=O)COc2ccc(-c3ccccc3)cc2)cc1OC,-16.8%
14,Cc1cccnc1NC(=O)C1CCN(S(=O)(=O)c2c(C)noc2/C=C/c2ccco2)CC1,-8.08%
15,CSc1sc(C(=O)NC(=O)NCc2ccncc2)c(C)c1-c1ccon1,-15.8%
16,Cc1cc(Br)ccc1NC(=O)CN(C)C(=O)CN1C(=O)NC2(CCCC2)C1=O,15.2%
17,Cc1ccc(C(=O)NC(C)c2ccncc2)o1 (stereo not shown),13.2%
18,O=C(CCCc1nc(-c2ccccc2Cl)no1)NCc1cccnc1,-2.1%
19,O=S(=O)(NC1=NCCCCC1)c1ccc2ccccc2c1,1.99%
20,COc1cccc(C(=O)Nc2ccccc2C(=O)NC2CC2)c1,0.677%
21,O=C(NCCCN1CCOCC1)c1cc(-c2ccccc2)on1,-15.1%
22,O=C(c1ccc2nc3ccc(Cl)cc3c(=O)n2c1)N1CCOCC1,-55.3%
23,O=C(Oc1ccc(Cl)c2ccccc12)N1CCCCC1,13.5%
24,COc1ccc(-n2c(/C=C/c3ccc(O)cc3)nc3ccccc3c2=O)cc1,-21.6%
25,c1ccc2sc(NN=C3CCCC3)nc2c1,17.4%

# From paper PMC4336329 (PLoS ONE, 2015)
